Source: patent US20200148779A1 (Bristol-Myers Squibb, published 2020)
Read-outs that look alike come from different tables or passages of the source. Blank lines part the entries; values can stand above or below the binder they belong to.

Columns and labels:
[1] = biological target: T1, hCD64-His (human, UniProt P12314 16-288, limits assumed); assay: SPR, FcgR titration on protein A captured dAb-Fc
T1 construct: also called hFcgRI

[2] = biological target: T2, human-CD40-Fc (human, UniProt P25942 partial chain); assay: SPR, dAb-Fc on immobilized hCD40-Fc, apparent KD (avidity)
T2 construct: generated in house; also called hCD40-Fc; not shown: Fc part of the in-house hCD40-Fc is not described

[3] = biological target: T3, hCD32a-R131 (human, UniProt P12318 34-217); assay: SPR, FcgR titration on protein A captured dAb-Fc
T3 construct: also called FcgRIIa-R131
T3 sequence: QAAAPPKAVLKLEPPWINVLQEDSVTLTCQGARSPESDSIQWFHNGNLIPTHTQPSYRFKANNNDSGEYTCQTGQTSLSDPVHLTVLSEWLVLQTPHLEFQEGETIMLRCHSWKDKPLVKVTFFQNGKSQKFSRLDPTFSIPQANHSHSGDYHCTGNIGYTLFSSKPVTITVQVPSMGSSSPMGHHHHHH

[4] = biological target: T1, hCD64-His; assay: SPR % Rmax, supernatant
[5] = biological target: T4, human-CD40-monomer protein (human, UniProt P25942 partial chain, limits assumed); assay: SPR, hCD40 monomer on protein A captured dAb-Fc
T4 construct: generated in house; also called hCD40 monomer; hCD40monomer

[6] = biological target: T2, human-CD40-Fc; assay: SPR, dAb-Fc on immobilized hCD40-Fc, apparent KD (avidity); remark: listed apart in the source
[7] = biological target: human CD40 on human tonsillar B cells (human, UniProt P25942 21-277); assay: cell-based or functional assay

T2 sequence (P25942 21-193): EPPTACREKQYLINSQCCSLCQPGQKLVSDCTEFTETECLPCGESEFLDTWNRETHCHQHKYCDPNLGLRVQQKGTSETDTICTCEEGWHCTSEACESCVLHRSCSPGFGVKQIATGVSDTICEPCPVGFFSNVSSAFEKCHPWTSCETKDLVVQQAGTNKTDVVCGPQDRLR
T1 sequence (P12314 other isoform, or with tags, fused parts or gaps limits assumed): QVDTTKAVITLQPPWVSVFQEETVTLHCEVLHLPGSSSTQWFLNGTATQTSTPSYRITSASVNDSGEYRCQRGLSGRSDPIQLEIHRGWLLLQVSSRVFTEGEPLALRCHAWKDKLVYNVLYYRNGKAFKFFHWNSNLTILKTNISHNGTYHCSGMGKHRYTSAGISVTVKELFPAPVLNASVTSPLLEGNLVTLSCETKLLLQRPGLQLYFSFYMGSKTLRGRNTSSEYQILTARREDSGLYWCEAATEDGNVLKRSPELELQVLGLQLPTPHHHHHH

B3: 3h56-269-IgG1a-C220S,C226S,C229S,P238K (Fc fusion)
chain: EVQLLESGGGLVQPGGSLRLSCAASGFTFRDYEMWWVRQAPGKGLERVSAINPQGTRTYYADSVKGRFTISRDNSKNTLYLQMNSLRAEDTAVYYCAKLPFRFSDRGQGTLVTVSSAST[gap - human IgG1 Fc with C220S C226S C229S P238K (EU numbers)]
notes: tested from expression supernatant
binding result [4]: binds

B5: 3h56-269-IgG1f-C220S,N297A (Fc fusion)
chain: EVQLLESGGGLVQPGGSLRLSCAASGFTFRDYEMWWVRQAPGKGLERVSAINPQGTRTYYADSVKGRFTISRDNSKNTLYLQMNSLRAEDTAVYYCAKLPFRFSDRGQGTLVTVSSAST[gap - human IgG1 Fc with changes]
IC50 (ng/ml), human B cell proliferation stimulated with CD40L expressing CHO [7]: 39.9 ng/mL | IC50 (ng/ml), human B cell proliferation stimulated with CD40L-IZ trimer [7]: 2.8 ng/mL | Kd [5]: 5 nM | koff [5]: 0.00014 s⁻¹ | kon [5]: 27000 M⁻¹ s⁻¹ | Kd [6]: < 1 nM

B6: 3h56-269-IgG1a-C220S,C226A,C229A,P238S (Fc fusion)
chain: EVQLLESGGGLVQPGGSLRLSCAASGFTFRDYEMWWVRQAPGKGLERVSAINPQGTRTYYADSVKGRFTISRDNSKNTLYLQMNSLRAEDTAVYYCAKLPFRFSDRGQGTLVTVSSAST[gap - human IgG1 Fc with changes]
Kd [5]: 5.9 nM | koff [5]: 0.00016 s⁻¹ | kon [5]: 28000 M⁻¹ s⁻¹ | Kd [6]: < 1 nM

The next lines start with the values.

Kd [1]: 62 nM | Kd [2]: < 1 nM
B1: 3h56-269-IgG1-D265A (Fc fusion)
chain: EVQLLESGGGLVQPGGSLRLSCAASGFTFRDYEMWWVRQAPGKGLERVSAINPQGTRTYYADSVKGRFTISRDNSKNTLYLQMNSLRAEDTAVYYCAKLPFRFSDRGQGTLVTVSSAST[gap - human IgG1 Fc with D265A (EU numbers)]

Kd [1]: 2.8 nM | Kd [3]: 2200 nM | Kd [2]: < 1 nM
B2: 3h56-269-IgG4.1 (Fc fusion)
chain: EVQLLESGGGLVQPGGSLRLSCAASGFTFRDYEMWWVRQAPGKGLERVSAINPQGTRTYYADSVKGRFTISRDNSKNTLYLQMNSLRAEDTAVYYCAKLPFRFSDRGQGTLVTVSSAST[gap - human IgG4 Fc with S228P (EU numbers)]
notes: also called BMS-986090

binding result [4]: binds | Kd [5]: 4.6 nM | koff [5]: 0.00014 s⁻¹ | kon [5]: 30000 M⁻¹ s⁻¹ | Kd [6]: < 1 nM
B4: 3h56-269-IgG1a-C220S,C226A,C229A,P238K (Fc fusion)
chain: EVQLLESGGGLVQPGGSLRLSCAASGFTFRDYEMWWVRQAPGKGLERVSAINPQGTRTYYADSVKGRFTISRDNSKNTLYLQMNSLRAEDTAVYYCAKLPFRFSDRGQGTLVTVSSAST[gap - human IgG1 Fc with C220S C226A C229A P238K (EU numbers)]

binding result [4]: binds | IC50 (ng/ml), human B cell proliferation stimulated with CD40L expressing CHO [7]: 34.6 ng/mL | IC50 (ng/ml), human B cell proliferation stimulated with CD40L-IZ trimer [7]: 2.3 ng/mL | Kd [5]: 4.9 nM | koff [5]: 0.00013 s⁻¹ | kon [5]: 25000 M⁻¹ s⁻¹ | Kd [6]: < 1 nM
B7: 3h56-269-IgG1a-C220S,P238K (Fc fusion)
chain: EVQLLESGGGLVQPGGSLRLSCAASGFTFRDYEMWWVRQAPGKGLERVSAINPQGTRTYYADSVKGRFTISRDNSKNTLYLQMNSLRAEDTAVYYCAKLPFRFSDRGQGTLVTVSSAST[gap - human IgG1 Fc with C220S P238K (EU numbers)]
